In all, about 45,000 compounds went through this assay and about 200 (0.44%) were called active. Another 7% or so got no clear call; they are omitted. Calls follow the shape of the dose curve; as a rule, active = well fitted activation curve with a large enough effect; inconclusive = small, poorly fitted or top-dose-only effect; inactive = no such curve, though single readings can be large or run the other way. The list shows a part of the results.

The nature of this assay: qHTS of TDP-43 Inhibitors: NCGC Sytravon Library Screen. Also: 0% is about no effect; nearly all actives have a fitted effect of over 55% in size. As to conditions: yeast TDP-43 toxicity rescue, BacTiter-Glo growth, 24 h; series mostly up to 46.1 µM; growth rescue (activation): at the top concentration. An outline of the steps:
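TDP-43-expressing yeast, pregrown in raffinose, seeded at OD600 0.02 in galactose medium with compound for 24 hr at 30 deg C. Growth read by BacTiter-Glo luminescence, so rescue of toxicity appears as activation.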
Take `Cc1ccc([N+](=O)[O-])cc1NC(=S)NC(=O)c1cccnc1`: the “growth rescue (activation)” value is inactive: -1.68%. Then `Cn1nccc1C(=O)Nc1cccc(C(F)(F)F)c1`, with inactive: -0.681%; and `Cc1ccc(C(=O)N(Cc2cccnc2)Cc2cc3cc(C)ccc3n3nnnc23)cc1`, with inactive: 4.29%; and `FC(F)(F)c1cccc(Cc2noc(CN3C[C@@H]4CCC[C@H]3C4)n2)c1`, with inactive: 7.09%.

Take `Cc1nc(COc2ccc(C(=O)Nc3ccccc3N3CCOCC3)cc2)cs1`: the “growth rescue (activation)” value was inactive: 22%.

Consider `O=C(NC(Cc1ccccc1)C(=O)O)/C(=C/c1ccccc1)NC(=O)c1ccc(Br)o1` (centres undefined), for which the “growth rescue (activation)” value is inactive: 7.48%. As for `O=C(CCCN1C(=O)CSc2ncccc21)N1CCN(c2cccc(C(F)(F)F)c2)CC1`, the figure is inactive: 14%; as for `Cc1cccc(C(=O)N[C@H](C(=O)Nc2nc(C)cs2)C(C)C)c1`, inactive: 4.6%; as for `CC1CN(c2nc(N(C)c3ccccc3)nc(N)c2[N+](=O)[O-])CC(C)O1` (centres undefined), inactive: 22.2%. As for `Cc1cccc(NC(=O)CCS(=O)(=O)c2ccccc2)n1`, the figure is inactive: 14%; as for `O=c1[nH]ncc(N/N=C\c2ccc(O)cc2O)c1Cl`, inactive: -9.1%; as for `COc1ccc(/C=C/C(=O)OCC(=O)NC2CCCC(C)C2C)cc1S(=O)(=O)N1CCOCC1` (centres undefined), inactive: 11.2%. In the case of `Cc1csc(SCC(=O)NCc2ccccc2)n1`, the “growth rescue (activation)” value is inactive: 17.3%. Then `O=C(O)C(Cc1ccccc1)n1cnnn1` (centres undefined), with inactive: 7.4%. As for `FC(F)(F)c1cccc(N/N=C/c2ccccc2)c1`, the figure is inactive: 35.3%. Then `O=C(O)CCC(=O)N1CN2CN(C(=O)CCC(=O)O)CC([N+](=O)[O-])(C2)C1`, with inactive: 6.23%. On to `COc1ccc(C2c3ccc4ccccc4c3Oc3ncn(Cc4ccco4)c(=N)c32)cc1OC` (centres undefined), for which the “growth rescue (activation)” value is inactive: 24.1%. Then `Cc1cccc(N2CCN(S(=O)(=O)c3ccc(Cl)nc3)CC2C)c1` (centres undefined), with inactive: 7.48%; and `O=C1/C(=C/c2ccco2)CCC1C1CCCC1` (centres undefined), with inactive: -0.563%. As for `O=S(=O)(c1ccc2ccccc2c1)N1CCN(C2Cc3ccccc3C2)CC1`, the figure is inactive: -4.97%. As for `COc1cccc(-n2c(=O)c3ccccc3n3c(=S)[nH]nc23)c1`, the figure is inactive: 11%; as for `O=C1c2ccccc2C(O)(c2ccccc2)N1C1CC1` (centres undefined), inactive: 23.2%. As for `O=C(NC1CCOc2ccccc21)C1CCCC1` (centres undefined), the “growth rescue (activation)” value is inactive: 2.71%. In the case of `COc1ccc(NC(=O)C2(C)CCCN(C(C)C)C2)cc1F` (centres undefined), the “growth rescue (activation)” value was inactive: 3.18%. For `Cc1ccsc1CN(C(=O)COc1ccc(Br)cc1)C1CCS(=O)(=O)C1` (centres undefined), the “growth rescue (activation)” value was inactive: 12.2%.

`COc1ccc(C(=O)N2CCCC2(C)C(=O)O)cc1C(F)(F)F` (centres undefined): the “growth rescue (activation)” value was inactive: 8.44%. As for `CCCc1ccc(C(O)c2ncc(-c3cccc(C)c3)[nH]2)cc1` (centres undefined), the figure is inactive: 17%; as for `Cc1nn(Cc2ccccc2)c(C)c1CNC(=O)CN=C1NS(=O)(=O)c2ccccc21`, inactive: -5.33%.

Take `COC(=O)c1sc(OC)cc1OCc1ccc(C)cc1`: the “growth rescue (activation)” value is inactive: 0.861%. Take `COc1cc(NC(=O)CCC(=O)OCCCC(F)(F)C(F)(F)F)nc(OC)n1`: the “growth rescue (activation)” value is inactive: 8.27%. As to `CC(Oc1ccc(Br)cc1)C(=O)NCCCN1CCCC1=O` (centres undefined), the “growth rescue (activation)” value was inactive: -2.95%. As for `O=C(c1c(F)cccc1F)N1CCCC(c2nc(-c3cccs3)no2)C1` (centres undefined), the figure is inactive: 11.9%. Then `O=C(NC(Cc1ccccc1)C(=O)O)/C(=C\c1ccc(Cl)cc1)NC(=O)c1ccccc1` (centres undefined), with inactive: -9.08%; and `COc1ccc(NC(=S)NC(=O)c2cc3ccccc3o2)c(OC)c1`, with inactive: 16.1%; and `CC(NC(=O)COC(=O)c1cccc(S(=O)(=O)N2CCCC2)c1)c1ccccc1` (centres undefined), with inactive: 5.1%.

Turning to `COC(=O)CN(c1ccc(OCc2ccccc2)cc1)S(C)(=O)=O`, the “growth rescue (activation)” value was inactive: 19.3%. As for `CCCc1n[nH]c(=O)c2c1nnn2Cc1ccccc1F`, the figure is inactive: -11.7%.

On to `NS(=O)(=O)c1ccc(CCNC(=S)NC2CCCCC2)cc1`, for which the “growth rescue (activation)” value was inactive: 21.3%. `N#Cc1ccc(OCC(=O)N/N=C2/CC(c3ccccc3)Oc3ccccc32)cc1` (centres undefined): the “growth rescue (activation)” value is inactive: 3.46%. For `O=C(COC(=O)/C=C/c1ccc(OC(F)F)cc1)NCc1cccs1`, the “growth rescue (activation)” value was inactive: 8.98%.

On to `COc1cc(NC(=O)Nc2nc(C(N)C3CCCCC3)cs2)cc(OC)c1OC` (centres undefined), for which the “growth rescue (activation)” value is inactive: 12%. Then `COc1ccc(CNC(=O)CN(Cc2ccc(Cl)cc2)C(=O)c2csnn2)cc1`, with inactive: -3.36%; and `CC(=O)N(C(C)=O)N1C(=O)c2cccc3c(N4CCOCC4)ccc(c23)C1=O`, with inactive: -21.9%; and `CCn1c(O)c(N=NC(=O)CNc2ccc(C)cc2)c2ccccc21`, with inactive: 24.9%. `COc1ccc(C2=NO[C@@H]3[C@@H]4C[C@@H]([C@H]5C(=O)N(C)C(=O)[C@@H]45)[C@H]23)cc1`: the “growth rescue (activation)” value is inactive: 8.96%. As for `Cc1ccc(OCc2ccc(C(=O)O)o2)c([N+](=O)[O-])c1`, the figure is inactive: -6.3%; as for `C/C(CC(=O)Nc1ccc(Cl)cc1Cl)=N\NC(=O)c1cnccn1`, inactive: 12.1%; as for `O=C(CSCc1ccccc1)Nc1ccc2c(c1)C(=O)NC2=O`, inactive: 14.3%.

On to `Cc1nnc(NC(=O)c2cccc(S(=O)(=O)N3CCc4ccccc43)c2)s1`, for which the “growth rescue (activation)” value was inactive: 3.27%. `CN(C)c1ccc(C(CNS(=O)(=O)c2ccc(F)cc2)c2c[nH]c3ccccc23)cc1` (centres undefined): the “growth rescue (activation)” value was inactive: -2.19%.

On to `COc1ccc(S(=O)(=O)N2CCC(C(=O)NCc3ccc(C)cc3)CC2)cc1`, for which the “growth rescue (activation)” value was inactive: 16.8%. Take `CCCn1c(SCC(=O)Nc2nnc(CC)s2)nnc1-c1ccncc1`: the “growth rescue (activation)” value was inactive: 3.6%. Then `COc1ccc(C)cc1NC(=O)C(OC(=O)CNC(=O)c1ccc(Br)cc1)c1ccccc1` (centres undefined), with inactive: 22.5%; and `O=C(O)CC1SC(N/N=C/c2ccc(Br)cc2)NC1=O` (centres undefined), with inactive: 6.4%.
